Tested on: E. coli cells (CA 8000), λ phage
Experiment: λ phage adsorption on E. coli cells
Details: niaziridin 1 μg/ml, MOI=10
Procedure: Overnight grown bacterial culture (Escherichia coli, CA 8000) was divided into 5 ml of aliquot each in screw cap tubes. One of the tube with the bacterial culture was treated with niaziridin to a final concentration of 1 μg/ml. Both the control and the treated tubes were incubated at 37° C. for 4 hours. The cultures were then infected with λ phage (MOI=10) for 10 minutes at 37° C. (for adsorption) followed by centrifugation at 10000 RPM for 10 minutes at 4° C.
The supernatant and the pellets for both treated and untreated cultures were then compared for the phage titer by plating on top agar containing sensitive bacteria at different dilutions. The phage titer in the supernatant of the treated culture was reduced by 2.6 folds indicating increase in adsorption to the bacterial cells harvested in the pellet.

CC1OC(Oc2ccc(CC#N)cc2O)C(O)C(O)C1O (stereo not shown) [Niaziridin, NIAZIRIDIN]
Reduction of phage titer in the supernatant of the treated culture: 2.6 folds

Source: patent publication US6858588B2, “Nitrile glycoside useful as a bioenhancer of drugs and nutrients, process of its isolation from moringa oleifera” (Council of Scientific and Industrial Research, priority 2003, dated 2005)
